Assay results as given in PubChem BioAssay AID1347073 (National Center for Advancing Translational Sciences (NCATS), 2019).
Out of some 45,000 compounds screened, about 200 (0.44%) were called active. Another 7% or so got no clear call; they are omitted. Calls come from the whole dose curve; as a rule, active = well fitted activation curve with a large enough effect; inconclusive = small, poorly fitted or top-dose-only effect; inactive = no such curve, though single readings can be large or run the other way. This is one part of the list.

Experiment: qHTS of TDP-43 Inhibitors: NCGC Sytravon Library Screen; note: 0% is about no effect; nearly all actives have a fitted effect of over 55% in size
Settings: yeast TDP-43 toxicity rescue, BacTiter-Glo growth, 24 h; series mostly up to 46.1 µM; growth rescue (activation): at the top concentration
Outline: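 TDP-43-expressing yeast, pregrown in raffinose, seeded at OD600 0.02 in galactose medium with compound for 24 hr at 30 deg C. Growth read by BacTiter-Glo luminescence, so rescue of toxicity appears as activation.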

Row | SMILES | growth rescue (activation)
1 | CCCCNC(=O)c1ccccc1NC(=O)CN(c1ccccc1)S(=O)(=O)N(C)C | inactive: 3.32%
2 | CC1=C(C(=O)Nc2ccccc2C(F)(F)F)C(c2ccc(C)s2)NC(=S)N1 (configuration not stated) | inactive: 7.74%
3 | OC(c1ccccc1)c1ncc(-c2ccc(Oc3ccccc3)cc2)[nH]1 (configuration not stated) | inactive: 7.16%
4 | COc1ccc(-c2cc(C(=O)OCC(=O)N(C)C3CCS(=O)(=O)C3)c3ccccc3n2)cc1OC (configuration not stated) | inactive: -5.38%
5 | CCn1cc(CNC(=O)C2C3CCC(C3)C2C(=O)O)cn1 (configuration not stated) | inactive: -0.0596%
6 | COc1ccc(NC(=O)c2ccc(NC(=O)CN(C)CC(=O)Nc3c(C)cccc3C)cc2)cc1 | inactive: 19.8%
7 | COc1ccc(S(=O)(=O)N2CCN(C(=O)N(C)C)C2C)cc1 (configuration not stated) | inactive: -0.949%
8 | CCOC(=O)c1c(C)c(C(=O)NCc2ccc3c(c2)OCO3)c(C)n1CC | inactive: 0.679%
9 | Cn1cccc1C(=O)OCC(=O)NC(=O)c1ccc(Cl)cc1 | inactive: 6.92%
10 | CCOc1ccccc1NC(=O)COC(=O)C1CCC(=O)N1 (configuration not stated) | inactive: 0.183%
11 | Cc1ccc(C)c(C(=O)COC(=O)c2c(-c3ccccc3)noc2C)c1 | inactive: 20.5%
12 | COc1ccc(C(=O)Nc2cnc(NC(=O)c3cccs3)cc2C)cc1 | inactive: 4.13%
13 | O=C(c1c(O)c2ccccc2oc1=O)C1CCC1 | inactive: -91.9%
14 | O=C(OCCOCCN=C1NS(=O)(=O)c2ccccc21)c1ccccc1 | inactive: 18.4%
15 | Cc1cc(C)c(N(C(=O)c2csnn2)C(C(=O)NC(C)(C)C)c2ccncc2)c(C)c1 (configuration not stated) | inactive: 3.72%
16 | O=C(Nc1ccc2c(c1)OCO2)C1CC(=O)N(c2cccc(Cl)c2)C1 (configuration not stated) | inactive: 0.704%
17 | Cc1ccc(C)c(CSc2nnc([C@@H]3CCCN3)o2)c1 | inactive: -1.71%
18 | CCc1nc2ccccc2n1CC(=O)NC1CCS(=O)(=O)C1 (configuration not stated) | inactive: 5.35%
19 | CC(NS(=O)(=O)c1ccc(Cl)c(Cl)c1)C(=O)Nc1cccnc1 (configuration not stated) | inactive: 1.95%
20 | CCOC(=O)C1(C)C=C(Nc2ccc(OC)cc2)C(=O)N1c1ccc(OC)cc1 (configuration not stated) | inactive: 5.81%
21 | O=c1cc(CSc2n[nH]c(-c3ccncc3)n2)nc2sccn12 | inactive: 9.68%
22 | O=C(O)c1cc(-c2ccc3c(c2)OCO3)nc2ccc(Br)cc12 | inactive: 22%

Row | SMILES | growth rescue (activation)
23 | CCOc1ccc(C2/C(=C(\O)c3ccc(OC)c(OC)c3)C(=O)C(=O)N2c2cc(C)on2)cc1OC (configuration not stated) | inactive: 8.03%
24 | O=C(N/N=C/c1cn(-c2ccccc2)nc1-c1cc2ccccc2o1)c1ccncc1 | inactive: 24.8%
25 | Nc1c(-c2ccccc2)c(CN2CCOCC2)nn1-c1cccc([N+](=O)[O-])c1 | inactive: -2.49%
26 | COc1c(C)cccc1C(=O)NC(=S)Nc1cccc2nsnc12 | inactive: -16.9%
27 | CC(=O)NC(c1ccc(C(C)C)cc1)c1ccc2cccnc2c1O (configuration not stated) | inactive: -2.98%
28 | CN1CCN(C(=O)c2ccc(N(C)S(=O)(=O)c3cccs3)cc2)CC1 | inactive: -9.06%
29 | O=C(CSc1nc2ccccc2c(=O)n1CC1CCCO1)Nc1ccccc1 (configuration not stated) | inactive: -21.1%
30 | CC1CC(C)CN(C(=O)c2cccc(NC(=O)CC3SC(N4CCCCC4)=NC3=O)c2)C1 (configuration not stated) | inactive: -14.2%
31 | COCCNC(=O)C1CCCN(C(=O)c2sc(-c3ccccc3)nc2C)CC1 (configuration not stated) | inactive: 6.21%
32 | CS(=O)(=O)c1ccc(-c2cc(NC=O)c3ncc(-c4ccc(F)cc4)n3c2)cc1 | inactive: -5.78%
33 | O=c1[nH]c2ccccc2nc1-c1ccccc1 | inactive: 2.18%
34 | COc1cc(Br)cc2cc(C(=O)N3CCOCC3)c(=O)oc12 | inactive: -2.5%
35 | CCN(Cc1cc(=O)[nH]c2ccccc12)C(=O)C(C)C | inactive: 12.3%
36 | CCNC(=O)COC(=O)COc1ccc(Cl)cc1C | inactive: 5.01%
37 | CCC(=O)c1ccc(OCC(=O)Nc2ccc(S(=O)(=O)Nc3cc(C)nc(C)n3)cc2)cc1 | inactive: 14.9%
38 | NNC(=O)COc1cccc(Oc2ccccc2)c1 | inactive: 21.2%
39 | COc1ccc(NC(=O)Nc2ccc(F)cc2F)cc1 | inactive: 6.85%
40 | Cc1cc2ccccc2n2c(SCC(=O)Nc3ccc(S(=O)(=O)N4CCCCC4)cc3)nnc12 | inactive: -26.1%
41 | COc1ccccc1CNC(=O)c1cc2ccccc2o1 | inactive: 20.5%
42 | COC(=O)c1cc(=O)n(Cc2ccc(OC)cc2)c(=NCc2ccc(OC)cc2)s1 | inactive: 0.862%
43 | O=C(O)CN1C(=O)/C(=C2\C(=O)N(Cc3ccccc3Cl)c3ccccc32)SC1=S | inactive: -7.65%
44 | COc1ccccc1OCC#CCNC1CCCCC1C (configuration not stated) | inactive: -13.9%

Row | SMILES | growth rescue (activation)
45 | COc1ccc(C(=O)OCC(=O)NC2CC2)cc1F | inactive: -21.4%
46 | CC1(Cc2ccc3ccccc3n2)C(=O)Nc2ccc(OC(F)(F)F)cc21 (configuration not stated) | inactive: -4.79%
47 | CCOC(=O)c1nn(-c2ccc3ccccc3c2)cc1O | inactive: -15%
48 | COc1cc(C)ccc1S(=O)(=O)NC1CC(C)(C)NC(C)(C)C1 | inactive: 3.04%
49 | Cc1cc([N+](=O)[O-])ccc1NC(=O)C1CCCO1 (configuration not stated) | inactive: 24.4%
50 | COC(=O)c1ccc(/C=N/NC(=O)c2ccccc2Cl)cc1 | inactive: 8.17%
51 | CCc1ccccc1NC(=O)COc1cccc(-n2cnnn2)c1 | inactive: -13.2%
52 | O=C(Cn1ccc2ccccc2c1=O)NCCC(=O)N1CCN(c2ccccc2)CC1 | inactive: 4.15%
53 | COc1ccc2c(CC(=O)NNC(=O)c3ccc(C)cc3)coc2c1 | inactive: 16%
54 | COc1ccc(/C=N/NC(=O)c2cccc(NC(C)=O)c2)c(C(=O)O)c1OC | inactive: 1.74%
55 | O=c1[nH]c(-c2ccccc2Cl)nc2c1sc(=S)n2-c1ccccc1 | inactive: -0.906%
56 | Cn1cc(P(=O)(N2CCOCC2)N2CCOCC2)cc1P(=S)(N1CCOCC1)N1CCOCC1 | inactive: -0.464%
57 | O=C1Nc2ccccc2C(=O)N2C[C@@H](O)C[C@H]12 | inactive: 6.98%
58 | Cc1ccc(C(=O)NNC(=O)CCn2nnc3ccccc32)cc1 | inactive: -3.86%
59 | O=C(Nc1ccc(O)c(-c2nc3ccccc3o2)c1)C1(c2ccc(Br)cc2)CCCC1 | inactive: 5.88%
60 | CC(C)NC(=O)c1ccc(-n2nc(C(F)(F)F)c3c2CCCC3)cc1 | inactive: 12.6%
61 | CCc1cc(C(=O)OC)c(NC(=O)CN2CCN(C(=O)c3ccco3)CC2)s1 | inactive: -22.6%
62 | O=C(NCCc1nc2ccccc2[nH]1)/C(=C/c1ccco1)NC(=O)c1ccc(Br)cc1 | inactive: 5.73%
63 | CCC(=O)Nc1sc(C(=O)Nc2ccccc2OC)c(C)c1C(=O)OC | inactive: 4.27%
64 | COc1ccc(C2SCCN2C(=S)Nc2ccc(F)cc2)cc1 (configuration not stated) | inactive: -0.809%
65 | O=C(O)C1C2C=CC(C2)C1C(=O)NCCCN1CCOCC1 (configuration not stated) | inactive: 4.68%
66 | CC(=O)c1ccccc1NC(=O)CCN1C(=O)C2CCCCC2C1=O (configuration not stated) | inactive: 7.79%

Row | SMILES | growth rescue (activation)
67 | Cc1c(Cl)cccc1NC(=S)N1CCN(C(=O)C2CCCO2)CC1 (configuration not stated) | inactive: 12.8%
68 | O=C(/C=C/c1cccc(Cl)c1)NCc1ccncc1 | inactive: 14.3%
69 | CC1CCC(NC(=O)C2CCN(S(=O)(=O)c3ccc4nc5c(c(C(=O)O)c4c3)CC(C)CC5)CC2)CC1 (configuration not stated) | inactive: 12.2%
70 | Cc1ccc2nsnc2c1NC(=O)COc1ccccc1 | inactive: 3.83%
71 | Cc1nnn(-c2nonc2N)c1C(=O)NNC(=O)c1ccc(Cl)c(Cl)c1 | inactive: 6.05%
72 | O=C(COC(=O)CNC(=O)c1ccc(Cl)cc1Cl)NC1CC1 | inactive: -3.66%
73 | COc1ccccc1N1CCN(CCCCOc2cccc3ccccc23)CC1 | inactive: -4.47%
74 | FC(F)(F)c1cccc(NC(=S)N2CCN(c3ccccn3)CC2)c1 | inactive: 1.92%
75 | CCCC(=O)NC(c1ccccc1Cl)c1ccc2cccnc2c1O (configuration not stated) | inactive: 12.6%
76 | O=C(NCCCN1CCOCC1)c1cc(Cl)ccc1[N+](=O)[O-] | inactive: -22.9%
77 | Cc1ccc(C(NC(=O)N2CC(C)OC(C)C2)C(Cl)Cl)cc1F (configuration not stated) | inactive: 11%
78 | COc1ccc(NC(=O)COC(=O)Cc2coc3cc(OC)ccc23)c(OC)c1 | inactive: -4%
79 | CCOCCCn1c(SCC(=O)N2CCOCC2)nc2ccccc2c1=O | inactive: -7.7%
80 | O=c1c2ccccc2c(-c2n[nH]c(=S)o2)nn1Cc1ccccc1 | inactive: 12.1%
81 | Cc1c(NCc2cc(Cl)ccc2O)c(=O)n(-c2ccccc2)n1C | inactive: 25.1%
82 | COc1cc(CC(=O)OCc2cccc([N+](=O)[O-])c2)cc(OC)c1OC | inactive: 33.8%
83 | Nc1cc(N)nc(SCC(=O)Nc2ccccc2N2CCOCC2)n1 | inactive: -10.1%
84 | Cc1ccc(S(=O)(=O)N2CCOCC2)cc1NC(=O)COC(=O)c1ccccc1OCc1c(C)noc1C | inactive: 16.9%
85 | CCOC(=O)CSc1nc(C)c2cccc(C)c2n1 | inactive: 26.5%
86 | NC(=O)COC(=O)C1c2ccccc2Oc2ccccc21 | inactive: 3.61%
87 | COc1ccc(NC(=O)/C=C/c2cccc(C(F)(F)F)c2)cn1 | inactive: 22.6%
88 | CCCCCC1C/C(=N\O)C=C(C)C1C(=O)OC (configuration not stated) | inactive: 1.58%

Row | SMILES | growth rescue (activation)
89 | CC(=O)Nc1cccc(Oc2ncnc3scc(-c4ccc(C(C)C)cc4)c23)c1 | inactive: 6.73%
90 | COc1cccc(NC(=O)NC2(C(=O)N3CCN(C)CC3)CCCCC2)c1 | inactive: 10.7%
91 | O=C(Nc1cccc(O)c1)c1cccc(S(=O)(=O)N2CCCCCC2)c1 | inactive: 9.08%
92 | Cc1ccc(S(=O)(=O)Nc2cc(C(F)(F)F)ccc2N2CCOCC2)cc1C | inactive: -5.38%
93 | COc1ccc(C(C(=O)NC2CCCCC2)N(C(=O)c2sc(C)nc2C)c2ccccc2)cc1 (configuration not stated) | inactive: 14%
94 | CC(C)Oc1cccc(C(=O)Nc2nnc([C@H]3C[C@H](O)[C@@H](CO)O3)s2)c1 | inactive: 0.429%
95 | CCOC(=O)c1cc2c(=O)n3cccc(C)c3nc2n(CC(C)C)c1=NC(=O)c1ccco1 | inactive: 2.13%
96 | COc1ccc(OC)c(NC(=O)C2CCN(C(=O)c3cccs3)CC2)c1 | inactive: 12.5%
97 | COc1ccc(CCNC(=O)C(C)SCc2ccccc2)cc1 (configuration not stated) | inactive: 11.3%
98 | C/C(=N\NC(=O)c1cccc(S(=O)(=O)N2CCOCC2)c1)c1ccco1 | inactive: 10.6%
99 | COCCNC(=O)C1(C)CCCN(Cc2cc(C)ccc2C)C1 (configuration not stated) | inactive: 18.7%
100 | O=C(CSc1nc2ccccc2n1S(=O)(=O)c1cccc([N+](=O)[O-])c1)NCc1cccs1 | inactive: 26.9%
101 | Cc1ccccc1C(=O)NC(=S)NC1CC1 | inactive: 19.6%
102 | Cc1ccc(C(=O)OCC(=O)Nc2ccc3[nH]c(=O)[nH]c3c2)cc1[N+](=O)[O-] | inactive: -5.11%
103 | O=C(CN(CC1CCCO1)C(=O)CNS(=O)(=O)c1ccc(Cl)cc1)NC1CCCC1 (configuration not stated) | inactive: 7.89%
104 | COc1ccc2cc(C(=O)C3CCCN(Cc4cnc(N5CCOCC5)s4)C3)ccc2c1 (configuration not stated) | inactive: 6.81%
105 | O=C1N=C(N2CCc3ccccc3C2)S/C1=C\c1ccc(O)cc1 | inactive: 14.8%
106 | N#C/C(=C/c1ccccc1[N+](=O)[O-])c1nnc2n1CCCCC2 | inactive: 10.7%
107 | Cc1cc(=O)[nH]c(SCC(=O)c2ccc3c(c2)NC(=O)CO3)n1 | inactive: -2.34%
